Source: paper PMC4336329 (PLoS ONE, 2015)
The campaign covered roughly 310,000 compounds. About 2,200 (0.71%) showed an effect of 50% or more. The effect is printed as a negative number. Some of the results follow.

What follows are molecules tested against human ether-à-go-go-related gene (hERG) potassium channel (human, UniProt Q12809) (assay: primary screen, population patch clamp on CHO cells stably expressing hERG).
Chain of human ether-à-go-go-related gene (hERG) potassium channel (Q12809 whole entry, looked up): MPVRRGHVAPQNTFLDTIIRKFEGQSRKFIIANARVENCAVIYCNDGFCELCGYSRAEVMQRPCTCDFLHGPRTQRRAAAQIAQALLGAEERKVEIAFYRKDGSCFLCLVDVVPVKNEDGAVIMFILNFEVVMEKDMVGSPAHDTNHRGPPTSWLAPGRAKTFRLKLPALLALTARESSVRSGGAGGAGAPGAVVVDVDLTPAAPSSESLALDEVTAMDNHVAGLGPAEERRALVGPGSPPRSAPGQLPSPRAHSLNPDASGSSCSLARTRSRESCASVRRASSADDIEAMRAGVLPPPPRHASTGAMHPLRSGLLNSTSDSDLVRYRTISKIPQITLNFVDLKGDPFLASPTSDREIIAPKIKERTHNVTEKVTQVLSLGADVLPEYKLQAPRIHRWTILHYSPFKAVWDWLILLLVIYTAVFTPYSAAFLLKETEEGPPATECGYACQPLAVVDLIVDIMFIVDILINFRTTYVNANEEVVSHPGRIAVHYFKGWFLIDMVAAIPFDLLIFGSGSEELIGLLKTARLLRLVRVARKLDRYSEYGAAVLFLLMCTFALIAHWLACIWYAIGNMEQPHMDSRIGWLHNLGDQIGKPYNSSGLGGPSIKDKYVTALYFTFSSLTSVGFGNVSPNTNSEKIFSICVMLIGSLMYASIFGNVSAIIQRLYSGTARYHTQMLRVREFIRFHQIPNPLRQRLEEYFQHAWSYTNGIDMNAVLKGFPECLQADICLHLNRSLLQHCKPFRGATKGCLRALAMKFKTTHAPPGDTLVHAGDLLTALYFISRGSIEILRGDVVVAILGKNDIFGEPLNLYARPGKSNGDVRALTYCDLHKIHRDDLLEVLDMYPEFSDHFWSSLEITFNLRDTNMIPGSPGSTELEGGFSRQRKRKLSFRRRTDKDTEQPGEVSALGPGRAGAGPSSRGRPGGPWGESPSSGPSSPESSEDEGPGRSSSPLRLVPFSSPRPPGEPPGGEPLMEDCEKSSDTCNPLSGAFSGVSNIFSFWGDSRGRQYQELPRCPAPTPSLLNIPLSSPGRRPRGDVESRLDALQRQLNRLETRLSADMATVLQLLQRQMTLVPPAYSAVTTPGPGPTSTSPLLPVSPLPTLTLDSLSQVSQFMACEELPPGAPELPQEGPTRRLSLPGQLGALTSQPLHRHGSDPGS

SMILES	hERG current change (%, negative = inhibition) at 1uM [%]
O=CN1CCN(C(=O)c2ccccc2F)CC1	18
Cc1ccc(OS(=O)(=O)c2ccc(-c3csc(C)n3)s2)c(C)c1	14.9
c1ccc2nc(OCCN3CC3)ccc2c1	6.14
O=S(=O)(NCC(c1cccnc1)N1CCN(c2ccccc2F)CC1)c1cccs1 (centres unmarked)	-12.8
O=C(NNS(=O)(=O)c1ccc(F)c(Cl)c1)c1cccc(S(=O)(=O)N2CCOCC2)c1	28.8
O=C(NCc1ccccc1)c1ccc2c(=O)n(CC3CCCO3)c(=S)[nH]c2c1 (centres unmarked)	12.6
CN(CC(=O)Nc1ccc(S(=O)(=O)N2CCCC2)cc1)Cc1ccc(Cl)cc1Cl	12.5
COc1ccc(CCNC(=O)C2CCN(S(=O)(=O)N3CC(C)CC(C)C3)CC2)cc1OC (centres unmarked)	4.55
COC(=O)[C@@]12CCCCN1[C@H](c1ccc(-c3ccc4c(c3)OCO4)c(OC)c1)[C@@H]1C(=O)N(C)C(=O)[C@@H]12.O=C(O)C(F)(F)F	14.6
Cc1ccc(S(=O)(=O)N2CCC(C(=O)NCCCn3ccnc3)CC2)cc1	9.96
Cc1ccc(C(=O)NC(=S)Nn2cnnc2)cc1	8.47
CCCCc1ccc(N=N/C(C(=O)Nc2ccccc2OC)=C(/C)O)cc1	-7.03
O=C(Nc1ccccc1)c1ccc(=O)n(Cc2ccc(F)c(F)c2)c1	6.42
COc1ccc(OCc2cccc(C(=O)NN)c2)cc1	9
CC(C)c1cc(C(=O)N/N=C/c2cccnc2)n[nH]1	11.7
N#CC1=C(N)NC(=S)C(C(N)=O)C1c1ccccc1F (centres unmarked)	12.6
Cc1cccc(C)c1NC(=O)NC1CC2CCC(C1)N2Cc1cccs1 (centres unmarked)	17.5
O=C(NCCc1ccccc1)C(c1cccs1)N(C(=O)c1csnn1)C1CC1 (centres unmarked)	-28.6
Cc1ccc(CNC(=O)CCc2nc3ccccc3c(=O)[nH]2)cc1	8.98
O=C(O)CCSc1nc2ccccc2n1CCOc1ccccc1	2.86
CCNC(=S)NNC(=O)C(c1ccccc1)c1ccccc1	1.4
COc1cccc(CNC(=O)CN2C(=O)c3ccccc3S2(=O)=O)c1	25.5

SMILES	hERG current change (%, negative = inhibition) at 1uM [%]
CCN(CC(=O)Nc1c(F)cccc1F)C(=O)/C=C/c1ccc(OCC#N)c(OC)c1	-3.56
COc1cc(O)c(C(C)=O)c(CC(=O)O)c1	0.0868
N#CC1(NC(=O)CN2C(=O)NC3(CCCCCC3)C2=O)CCCCC1	-0.329
COc1ccc(CCNC(=O)c2cc(COc3c(C)cccc3C)on2)c(OC)c1	-1.59
CC1=C(N2CCN(c3ncccn3)CC2)CCC1=O	5.68
O=C(CSc1nnc(-c2cccnc2)s1)Nc1ccccc1	12.8
CCC(OC(=O)C(NC(=O)c1ccccc1)c1ccccc1)C(=O)Nc1cc(C)on1 (centres unmarked)	18.2
CCOc1ccccc1N1CCN(C(=O)c2cc[n+]([O-])cc2)CC1	14.2
Cc1no[n+]([O-])c1COc1ccccc1/C=N/n1nnnc1N	15.3
CCOc1cc(C(=O)NCC2CCCO2)cc(OCC)c1OCC (centres unmarked)	0.71
COCCSc1nnc(NC(=O)c2cc(OC)c(OC)cc2[N+](=O)[O-])s1	18
Cc1cc(NC(=O)c2ccccc2)n(C(C)(C)C)n1	14.5
O=C(c1ccc(N2CCCC2=O)cc1)N1CCN(c2ccccc2)CC1	13.9
COc1ccc(OCC(=O)OCC(=O)Nc2ccc(S(=O)(=O)N3CCCCC3)cc2)cc1	-0.323
Cc1cc(OC(=O)c2ccco2)c2c3c(c(=O)oc2c1)CCCC3	12.6
Cc1ccc(C(=O)COc2cc(C)nc3nncn23)cc1	13.3
COC(=O)[C@@H](NC(=O)O[C@@H]1C(=O)c2cc(Br)ccc2O[C@H]1c1cccc(OC)c1)C(C)C	7.25
COc1ccc2oc(=O)c(N3C(=O)c4ccccc4C3=O)cc2c1	27.2
O=C(OCC(=O)N1CCC(Cc2ccccc2)CC1)c1ccc[nH]c1=O	8.65
COc1cccc(C2C(=O)N(C3CCCCC3)CC(=O)N2Cc2ccc(F)cc2)c1 (centres unmarked)	-15.7
CCOc1ccc(-c2ccc(NS(=O)(=O)c3cc([N+](=O)[O-])c(C)c([N+](=O)[O-])c3)cc2)nn1	6.87
CN(c1ccccc1)c1ccc(/C=N/N2CCOCC2)cc1	11.2
